Structures are written as SMILES. The campaign covered roughly 310,000 compounds. About 2,200 (0.71%) showed an effect of 50% or more. The effect is printed as a negative number. The list shows a part of the results.

These results are taken from PMC4336329 (PLoS ONE, 2015).

This experiment deals with human ether-à-go-go-related gene (hERG) potassium channel (human, UniProt Q12809). Put plainly: primary screen, population patch clamp on CHO cells stably expressing hERG.
human ether-à-go-go-related gene (hERG) potassium channel, sequence (Q12809 whole entry, looked up): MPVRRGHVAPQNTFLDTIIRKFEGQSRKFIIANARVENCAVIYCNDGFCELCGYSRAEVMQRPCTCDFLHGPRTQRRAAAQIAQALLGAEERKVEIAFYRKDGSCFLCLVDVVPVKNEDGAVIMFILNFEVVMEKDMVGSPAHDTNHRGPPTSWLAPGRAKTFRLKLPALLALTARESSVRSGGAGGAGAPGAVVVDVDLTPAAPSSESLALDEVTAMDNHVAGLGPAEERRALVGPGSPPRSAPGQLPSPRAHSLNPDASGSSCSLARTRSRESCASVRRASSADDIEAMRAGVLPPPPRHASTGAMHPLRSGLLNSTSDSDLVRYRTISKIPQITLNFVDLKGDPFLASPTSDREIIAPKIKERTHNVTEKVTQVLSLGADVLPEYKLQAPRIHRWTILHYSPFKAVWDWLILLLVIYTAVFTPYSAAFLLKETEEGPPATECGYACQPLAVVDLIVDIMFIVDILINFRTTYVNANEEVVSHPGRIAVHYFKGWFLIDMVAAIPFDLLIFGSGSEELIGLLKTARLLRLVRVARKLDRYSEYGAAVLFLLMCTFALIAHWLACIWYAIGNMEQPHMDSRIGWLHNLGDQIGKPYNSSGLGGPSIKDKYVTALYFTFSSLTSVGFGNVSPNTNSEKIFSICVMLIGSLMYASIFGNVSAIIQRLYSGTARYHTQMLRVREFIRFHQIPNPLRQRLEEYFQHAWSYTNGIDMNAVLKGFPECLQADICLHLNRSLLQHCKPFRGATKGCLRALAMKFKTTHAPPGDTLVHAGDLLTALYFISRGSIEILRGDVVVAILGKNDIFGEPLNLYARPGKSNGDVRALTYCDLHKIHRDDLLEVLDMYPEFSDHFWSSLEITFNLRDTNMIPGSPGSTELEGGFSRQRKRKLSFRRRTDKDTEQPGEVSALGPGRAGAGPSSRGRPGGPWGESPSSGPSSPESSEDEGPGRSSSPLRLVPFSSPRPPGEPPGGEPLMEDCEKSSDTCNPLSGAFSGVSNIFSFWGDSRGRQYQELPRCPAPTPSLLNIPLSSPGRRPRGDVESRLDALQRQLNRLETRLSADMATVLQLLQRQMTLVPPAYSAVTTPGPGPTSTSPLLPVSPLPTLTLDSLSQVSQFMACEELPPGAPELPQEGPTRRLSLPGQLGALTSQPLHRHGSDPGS
Regarding `COc1ccc(S(=O)(=O)NCCC(=O)N2CCCC2)cc1N(C)S(C)(=O)=O`, the “hERG current change (%, negative = inhibition) at 1uM” value stood at 12.2%.
For `CCCCCCCC(=O)N/N=C/c1ccco1`, the “hERG current change (%, negative = inhibition) at 1uM” value is listed as -1.1%.
Take `COc1ccc(N(C)S(=O)(=O)c2cccc(C(=O)N3CCN(S(=O)(=O)c4ccc(C)cc4)CC3)c2)cc1`: the “hERG current change (%, negative = inhibition) at 1uM” value is 0.539%.
Take `CCOC(=O)N1CCN(C(=O)C(=O)N/N=C/c2ccc(OC)cc2OC)CC1`: the “hERG current change (%, negative = inhibition) at 1uM” value is recorded as 7.19%.
On to `S=c1[nH]nc(-c2ccn[nH]2)n1-c1ccccc1Cl`, for which the “hERG current change (%, negative = inhibition) at 1uM” value is 10.4%.
Then `CC(NC(=O)[C@@H](C)NC(=O)[C@@H]1Cc2ccccc2CN1C(=O)OC(C)(C)C)c1ccccc1` (some centres unmarked), with 11.1%.
In the case of `O=C(C1CCC(C(=O)N2CCc3ccccc32)CC1)N1CCc2ccccc21` (centres unmarked), the “hERG current change (%, negative = inhibition) at 1uM” value came out at 10.5%.
`O=C(C1CCC(=O)N(C2CC2)C1)N1CCC(Oc2cccc(F)c2)CC1` (centres unmarked): the “hERG current change (%, negative = inhibition) at 1uM” value is listed as -3.87%.
On to `C=CCn1c(Cc2ccc(OC(C)C)c(Cl)c2)nnc1SCC(N)=O`, for which the “hERG current change (%, negative = inhibition) at 1uM” value was 9.03%.
Regarding `CC(=O)NCc1cccc(CNC(C)=O)n1`, the “hERG current change (%, negative = inhibition) at 1uM” value was 7.49%.
As to `COc1ccc(N2C(=O)CC(N3CC=C(c4ccccc4)CC3)C2=O)cc1` (centres unmarked), the “hERG current change (%, negative = inhibition) at 1uM” value is given as 5.01%.
Take `COc1ccc(OC)c(Cc2nnc(CCC(=O)N3CCCCC3c3nccs3)o2)c1` (centres unmarked): the “hERG current change (%, negative = inhibition) at 1uM” value came out at 9.59%.
For `COc1cccc(CNC(=O)CCC2CCCN(c3cc(C)nc(N)n3)C2)c1` (centres unmarked), the “hERG current change (%, negative = inhibition) at 1uM” value is reported as -18.3%.
Turning to `COc1ccc(CCNC(=O)c2cc3c(=O)n4ccccc4nc3n(CCN3CCOCC3)c2=N)cc1`, the “hERG current change (%, negative = inhibition) at 1uM” value is on record as -82%.
`CC1(O)CC(c2ccc(Cl)cc2)=NN1C(=O)c1ccc(Cl)cc1` (centres unmarked): the “hERG current change (%, negative = inhibition) at 1uM” value was determined as 11.3%.
With `Cc1ccc2cn[nH]c2c1NC(N)=S`, the “hERG current change (%, negative = inhibition) at 1uM” value was found to be 6.8%.
As to `CC(=O)Nc1cccc(C(=O)OCC(=O)NCc2cc(C)c(O)c(C)c2)c1`, the “hERG current change (%, negative = inhibition) at 1uM” value is -20.5%.
Then `CSc1ccc(CN2CCSCC2)cc1`, with 9.85%; and `C=CCN1C(=O)C(O)(CC(=O)c2ccccn2)c2ccccc21` (centres unmarked), with 3.7%; and `COc1ccc(NC(=O)c2ccccc2[N+](=O)[O-])cc1`, with 13.2%.
In the case of `Cc1cc(NC(=O)CSc2nnc(Cn3c(=O)sc4ccccc43)n2-c2ccccc2C)no1` it was 12.3%; in that of `CN(CC(=O)Nc1c(Cl)cccc1Cl)C(=O)C1CCN(C(=O)Nc2ccccc2)CC1`, 10.9%; in that of `CC(C)(C)c1ccc2c(c1)OC(C(=O)N/N=C\c1ccccn1)CO2` (centres unmarked), 6.25%.
In the case of `O=C(CCSCCc1ccccn1)Nc1ccc(Cc2ccncc2)cc1` it was 8.07%.
In the case of `CN(CC(=O)Nc1cccc(S(=O)(=O)NC2=NCCC2)c1)Cc1ccccc1Cl`, the “hERG current change (%, negative = inhibition) at 1uM” value was -1.75%.
In the case of `CCOC(=O)COc1cccc2c(=O)n(CC(=O)NCc3ccccc3)ccc12` it was 9.66%; in that of `O=C(c1ccco1)c1cn(Cc2ccc(Cl)cc2)c2ccccc12`, 6.55%.
For `COc1ccc(-c2cc(C(=O)N3CCN(c4ccccc4O)CC3)c3ccccc3n2)cc1`, the “hERG current change (%, negative = inhibition) at 1uM” value came to 5.58%.
In the case of `O=C(c1ccccc1)c1ccc(COC(=O)c2cnccn2)cc1` it was 5.17%; in that of `Cc1ccccc1C1=NC(C(F)(F)F)(C(F)(F)F)c2c(n(-c3ccc(F)cc3)c(=O)[nH]c2=O)N1`, 11.5%; in that of `COc1ccc(/C=C/C(=O)OCc2csc(-c3ccccc3)n2)cc1OC`, 17.2%.
Take `Fc1ccc(CNCCc2ccccc2)cc1.O=C(O)C(=O)O`: the “hERG current change (%, negative = inhibition) at 1uM” value was found to be 5.08%.
For `CCN(CC)S(=O)(=O)c1ccc(N2CCOCC2)c(NC(=O)c2ccc(N3CCCC3=O)cc2)c1`, the “hERG current change (%, negative = inhibition) at 1uM” value is recorded as 14.1%.
As for `Cc1[nH]c(=O)c(C#N)c(C)c1CSc1ncccn1`, the “hERG current change (%, negative = inhibition) at 1uM” value amounted to 5.9%.
Consider `CCOC(=O)C1=C(C)NC(=O)CC1c1cc(OC)c(OC)cc1Br` (centres unmarked), for which the “hERG current change (%, negative = inhibition) at 1uM” value came to 15.6%.
Take `CCn1c(=S)sc2c(=O)n(CC(=O)Nc3ccc(OC)c(Cl)c3)c(C)nc21`: the “hERG current change (%, negative = inhibition) at 1uM” value came to 18.4%.
In the case of `O=C(Nc1ccc(Br)cc1)N1CCCCCC1` it was 8.3%; in that of `CCC(C)NC(=O)CSc1nc2ccccc2c(=O)n1-c1c(C)n(C)n(-c2ccccc2)c1=O` (centres unmarked), 10.1%; in that of `CC1CC(C)CN(c2oc(Cc3ccccc3)nc2C#N)C1` (centres unmarked), 7.63%.
As to `O=C(CSc1nc2cc(Cl)ccc2s1)Nc1cccc(S(=O)(=O)N2CCOCC2)c1`, the “hERG current change (%, negative = inhibition) at 1uM” value is 12.2%.
Regarding `O=C(Nc1ccccc1)c1ccc(CN2CCC(Cc3ccccc3)CC2)cc1`, the “hERG current change (%, negative = inhibition) at 1uM” value is 12.7%.
`COc1ccc(NC(=O)CCS(=O)(=O)c2cc3c(cc2C)NC(=O)CO3)cc1`: the “hERG current change (%, negative = inhibition) at 1uM” value is reported as -12%.
`COc1ccc(-c2nnn(CC(=O)N(CC(=O)NC3CCCC3)Cc3ccco3)n2)cc1OC`: the “hERG current change (%, negative = inhibition) at 1uM” value came to 4.9%.
Then `FC(F)(F)c1ccc(C2[C@H]3CN(Cc4cccnc4)[C@H](c4ccccc4)C34CC2(c2cccnc2)C4)cc1` (some centres unmarked), with 13.7%; and `COCCOc1nc2c(c(=O)n(C)c(=O)n2C)n1CCc1ccccc1`, with 4.69%.
Take `COc1ccc2c(c1OC)C(=O)OC2Nc1nc(-c2ccc([N+](=O)[O-])cc2)cs1` (centres unmarked): the “hERG current change (%, negative = inhibition) at 1uM” value is given as 11.7%.
Regarding `Cc1c(NC(=O)Nc2ccccc2[N+](=O)[O-])c(=O)n(-c2ccccc2)n1C`, the “hERG current change (%, negative = inhibition) at 1uM” value came to 13.2%.
In the case of `O=C(Nc1nnc(-c2ccc(Cl)cc2)o1)C1CCCCC1`, the “hERG current change (%, negative = inhibition) at 1uM” value worked out at 12.6%.
Then `CC(=O)Nc1c(Cl)cc([N+](=O)[O-])c2ccccc12`, with 7.63%; and `O=C(Nc1cccc(C(=O)O)c1)/C(=C\c1ccco1)NC(=O)c1ccc(Br)o1`, with 7.51%; and `O=C(NCc1ccccn1)c1cccc(S(=O)(=O)N2CCCCC2)c1`, with -19.9%.
Consider `O=C(c1ccc2c(c1)OCCO2)N(c1ccccn1)C1CCCCC1`, for which the “hERG current change (%, negative = inhibition) at 1uM” value was 11.5%.
In the case of `CC(=O)Nc1ccc(S(=O)(=O)NC2(C(F)(F)F)N=C(c3ccccc3)NC2=O)cc1` (centres unmarked) it was 16.5%.
Consider `CCC(C)(C)NC(=O)CN(Cc1cccs1)C(=O)CNS(=O)(=O)c1ccc(C)cc1`, for which the “hERG current change (%, negative = inhibition) at 1uM” value came to 1.79%.
Consider `Cl.Cn1c(=N)n(CC(O)c2ccco2)c2ccccc21` (centres unmarked), for which the “hERG current change (%, negative = inhibition) at 1uM” value amounted to 1.97%.
Turning to `COc1ccc(NC(=O)C2CCCN2S(=O)(=O)c2ccc(Cl)cc2)cc1` (centres unmarked), the “hERG current change (%, negative = inhibition) at 1uM” value is reported as 11.9%.
Turning to `CCOC(=O)c1c(C)[nH]c(C)c1S(=O)(=O)N(C)CC(=O)NCc1ccc(C)cc1`, the “hERG current change (%, negative = inhibition) at 1uM” value amounted to 14.1%.
Take `Cl.O=S(=O)(c1ccc(OCC(O)CNCc2ccco2)c(Cl)c1)N1CCOCC1` (centres unmarked): the “hERG current change (%, negative = inhibition) at 1uM” value is recorded as -4.65%.
For `O=C(Nc1ccncc1)c1cn(-c2ccccc2)nc1-c1cccs1`, the “hERG current change (%, negative = inhibition) at 1uM” value is 10.5%.
As to `Cc1cc(=O)oc2cc(OCC(=O)N3CC[C@@]4(O)CCCC[C@H]4C3)c(Cl)cc12`, the “hERG current change (%, negative = inhibition) at 1uM” value is on record as -5.58%.
As for `NC(=O)c1ccccc1OCC(=O)c1ccc(Cl)cc1`, the “hERG current change (%, negative = inhibition) at 1uM” value is reported as 8.57%.
With `N#CC(Cc1cccc(CC(C#N)(c2ccccc2)c2ccccc2)c1)(c1ccccc1)c1ccccc1`, the “hERG current change (%, negative = inhibition) at 1uM” value is on record as 13.6%.
Regarding `O=C(COc1ccc(Cl)cc1)NCCSc1ccccc1`, the “hERG current change (%, negative = inhibition) at 1uM” value was -2.52%.
As to `CCN(CC)CCn1c(C)nc2ccccc21.Cl`, the “hERG current change (%, negative = inhibition) at 1uM” value was 6.38%.
In the case of `COC(=O)c1sccc1NC(=O)CSc1nnnn1-c1ccccc1F` it was 13.8%; in that of `CCn1c(C)cc(=S)c2ccccc21`, -3.06%; in that of `N#CC1(c2ccccc2)CCC(=NO)CC1` (centres unmarked), 14.6%.
Regarding `CC(C)CC(=O)N1CCN(CC2CC=CCC2)CC1.O=C(O)C(=O)O` (centres unmarked), the “hERG current change (%, negative = inhibition) at 1uM” value amounted to 4.6%.
Then `CCCNC(=O)c1c(Cl)cnn1-c1ccc(C)cc1`, with 4.22%; and `COc1ccccc1C1/C(=C(/O)c2ccc(C)cc2)C(=O)C(=O)N1CC(C)O` (centres unmarked), with 13%.
As for `COc1ccccc1N1CCN(CCN2C(=O)CC(=C3c4ccccc4-c4ccccc43)C2=O)CC1.Cl`, the “hERG current change (%, negative = inhibition) at 1uM” value is on record as 2.87%.
With `CCCNC(=O)c1ccc2c(=O)c(O)c(-c3ccsc3)[nH]c2c1`, the “hERG current change (%, negative = inhibition) at 1uM” value worked out at 4.96%.
With `CCn1c(SCC(=O)N2CCCCCC2)nc2c(c1=O)SCC2`, the “hERG current change (%, negative = inhibition) at 1uM” value is listed as 9.44%.
Turning to `O=C(c1ccco1)N1CCN(c2cc(=O)n(-c3ccc(Cl)cc3)c(=O)[nH]2)CC1`, the “hERG current change (%, negative = inhibition) at 1uM” value worked out at 1.54%.
Turning to `O=C(CCC(=O)Nc1ccc(F)cc1)N/N=C/c1ccccc1O`, the “hERG current change (%, negative = inhibition) at 1uM” value is listed as 10.9%.
With `Cc1ccc(C(=O)OC(C)C(=O)NCc2ccc3c(c2)OCO3)cc1S(=O)(=O)N1CCOCC1` (centres unmarked), the “hERG current change (%, negative = inhibition) at 1uM” value turned out to be 19.1%.
Regarding `CC(OC(=O)c1ccc(Cl)c([N+](=O)[O-])c1)C(=O)N1CCN(Cc2ccccc2)CC1` (centres unmarked), the “hERG current change (%, negative = inhibition) at 1uM” value was -30.3%.
Turning to `CC(NC(=O)c1ccccc1)C(=O)OCn1nnc2ccccc2c1=O` (centres unmarked), the “hERG current change (%, negative = inhibition) at 1uM” value is on record as 5.85%.
Regarding `Cc1ccc(OC(=O)C2CSC3(C)CCC(=O)N23)c(Br)c1` (centres unmarked), the “hERG current change (%, negative = inhibition) at 1uM” value is -1.47%.
Then `Cc1ccc(S(=O)(=O)N2CCCCC2)cc1NC(=O)Cn1ccsc1=N.Cl`, with -2.65%.
For the compound `CCOc1ccc(N2C(=O)/C(=C/c3cccs3)N(C)C2=S)cc1`, the “hERG current change (%, negative = inhibition) at 1uM” value is listed as 11.1%.
Turning to `CCOC(=O)CCCNC(=O)COC(=O)/C=C/c1ccc2c(c1)OCO2`, the “hERG current change (%, negative = inhibition) at 1uM” value is recorded as 10.1%.
As for `CCCCN(CC)C(=O)Cc1c(C(=O)O)[nH]c2ccc(Cl)cc12`, the “hERG current change (%, negative = inhibition) at 1uM” value is 7.28%.
Consider `COc1ccc(S(=O)(=O)N2CCN(c3ccc(F)cc3)CC2)cc1C(=O)N1CCCC1`, for which the “hERG current change (%, negative = inhibition) at 1uM” value stood at 5.33%.
Turning to `COc1ccc(CCNC(=S)c2ccccc2)cc1OC`, the “hERG current change (%, negative = inhibition) at 1uM” value was found to be 7.2%.
Then `O=C1C(Cl)=C(NCC2CCCO2)C(=O)N1Cc1ccccc1` (centres unmarked), with 5.51%.
